Laboratory results reported in PubChem BioAssay AID1347073 (National Center for Advancing Translational Sciences (NCATS), 2019).
Out of some 45,000 compounds screened, about 200 (0.44%) were called active. Roughly 7% stayed inconclusive and do not appear here. Calls come from the whole dose curve; as a rule, active = well fitted activation curve with a large enough effect; inconclusive = small, poorly fitted or top-dose-only effect; inactive = no such curve, though single readings can be large or run the other way. The list shows a part of the results.

assay: qHTS of TDP-43 Inhibitors: NCGC Sytravon Library Screen; details: yeast TDP-43 toxicity rescue, BacTiter-Glo growth, 24 h; series mostly up to 46.1 µM; growth rescue (activation): at the top concentration; note: nearly all actives have a fitted effect of over 55% in size; for growth rescue (activation): 0% is about no effect
Method in brief: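 TDP-43-expressing yeast, pregrown in raffinose, seeded at OD600 0.02 in galactose medium with compound for 24 hr at 30 deg C. Growth read by BacTiter-Glo luminescence, so rescue of toxicity appears as activation.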
Potency is the fitted concentration of half-maximal effect.

Compound | growth rescue (activation) | Potency
FC(F)(F)Oc1ccc(Nc2nc3ccccc3o2)cc1 | inactive: 14.3% | 
O=C(CSCc1ccc(F)cc1)NCc1ccc2c(c1)OCO2 | inactive: 23.4% | 
COc1cc(C(=O)OCC(=O)NC(=O)c2cccn2C)ccc1OC(F)F | inactive: 10.1% | 
NC1=NC(=O)/C(=C\c2ccco2)S1 | inactive: 27.1% | 
COc1ccc(C(=O)Cn2cnc3ccc(Cl)cc3c2=O)cc1F | inactive: -14% | 
COc1ccccc1NC(=O)COC(=O)c1ccccn1 | inactive: 10.4% | 
CC(=O)Nc1cccc(C(=O)NNC(=O)c2n[nH]c(=O)c3ccccc23)c1 | inactive: 8.83% | 
CC(=O)Cn1ncc(Br)c(Br)c1=O | inactive: 12.3% | 
O=C(CC1C(=O)NCCN1Cc1cccc(C(F)(F)F)c1)NC1CCOCC1 (stereo not given) | inactive: 18.4% | 
CN1/C(=C\C(=O)c2cccc([N+](=O)[O-])c2)Sc2ccccc21 | inactive: 16.1% | 
CCCn1c(SCC(=O)N2CCN(C(=O)c3ccco3)CC2)nc2ccccc2c1=O | inactive: -14% | 
Cc1cc(Br)ccc1SCC(=O)OCC(=O)Nc1ccccc1C#N | inactive: 17.5% | 
CCOc1ccc(C(=O)/C=C/Nc2ccc(S(=O)(=O)N=C(N)N)cc2)cc1 | inactive: -27.4% | 
CC1(C(=O)NS(=O)(=O)c2cccc(C#N)c2)CCN1C(=O)c1ccco1 (stereo not given) | inactive: -5.84% | 
Nc1c(Cl)ncnc1N/N=C/c1ccnc2ccccc12 | inactive: 11.1% | 
COc1ccccc1CCC(=O)N1CCC(n2nccc2NC(=O)C2CCOC2)CC1 (stereo not given) | inactive: -12.2% | 
Cc1cc(NS(=O)(=O)c2ccc(NC(=O)COc3ccc(C#N)cc3)cc2)nc(C)n1 | inactive: 8.47% | 
CC(=O)c1ccc(OCc2cc(C(=O)N(C)Cc3ncc(C)[nH]3)no2)cc1 | inactive: 27.4% | 
Cc1nc([N+](=O)[O-])cn1CC(=O)c1ccccc1 | inactive: -9.35% | 
CCC(CC)C(=O)N(C)c1c(C)nc2c(OCc3ccc(C#N)cc3)cccn12 | inactive: 15% | 
COc1ccc(CNC(=O)CSc2nnc3c(n2)[nH]c2ccc(F)cc23)cc1 | inactive: 4.98% | 
O=C(COC(=O)C1CC2C=CC1C2)Nc1cccc(S(=O)(=O)N2CCOCC2)c1 (stereo not given) | inactive: -1.84% | 
CN(C)c1ccc(C=C2C(=O)OC(C)(C(C)(C)C)OC2=O)cc1 (stereo not given) | inactive: -10.9% | 
CCOC(=O)C1(C)CCN1C(=O)c1ccccc1C(F)(F)F (stereo not given) | inactive: 1.48% | 

Compound | growth rescue (activation) | Potency
CCCCNC(=O)CSc1nc2ccc(NC(=O)CSc3nnc(N)s3)cc2s1 | inactive: 5.07% | 
COc1cc(/C=C/c2ccc3cccc(O)c3n2)cc(OC)c1OC | inactive: 25.3% | 
CC1(C(=O)NS(=O)(=O)c2ccc(C#N)cc2)CCN1C(=O)C1(c2ccc(Cl)cc2)CCC1 (stereo not given) | inactive: 6.69% | 
CCCCOC(=O)N1CCOCCOCCOCC1 | inactive: -11% | 
O=C1CCC(=O)N1c1ccc(-c2nc3ccccc3s2)cc1 | inactive: -3.99% | 
O=[N+]([O-])c1ccc2nc(NCCCO)nc(-c3ccccc3)c2c1 | inactive: 17.4% | 
COc1c(/C=N/NC(N)=S)c(C)nn1-c1ccccc1 | inactive: 2.19% | 
CCOC(=O)C1(C)CCN1C(=O)c1ccc2ccccc2c1 (stereo not given) | inactive: 19.7% | 
COc1ccc(-n2c(C)c(C)c3c(N)ncnc32)cc1 | inactive: 0.663% | 
Cc1cccc(N(CC(=O)NC2CCCC2)C(=O)c2nsc(Cl)c2Cl)c1C | inactive: 3.1% | 
Nc1ccc2nc(-c3cccc(-c4nc5ccc(N)cc5[nH]4)c3)[nH]c2c1 | inactive: 26.9% | 
CN1Cc2ccccc2CC1CNCc1c(C(=O)N2CCCC2)nc2ccccn12 (stereo not given) | inactive: -1.28% | 
CCCCn1c(NCc2ccncc2)nc2ccccc21 | inactive: -10.3% | 
Cc1cccc(NC(=O)C(=O)C2C(=O)Nc3ccccc32)c1 (stereo not given) | inactive: -49% | 
CCc1c(C)sc(NC(=S)N2CCN(CC)CC2)c1C(=O)OC | inactive: 9.96% | 
O=C(NC1CCCCCC1)C(=O)NC1CC1 | inactive: -1.49% | 
COc1ccc(-c2nn(-c3ccccc3)cc2/C=N/n2cnnc2)cc1OC | inactive: 21% | 
O=C(Cn1c(=O)oc2cc(S(=O)(=O)N3CCCC3)ccc21)Nc1ccccc1Br | inactive: -9.27% | 
CS(=O)(=O)c1ccc2c(c1)sc1nc(=O)c(/C=C3/C=CC(=O)C(O)=C3)c(N)n12 | inactive: -2.72% | 
C/C(=N\Nc1ccc([N+](=O)[O-])cc1)c1ccc(-n2nncc2C)cc1 | inactive: 27% | 
CC(C)OCc1c(C(=O)OC/C(O)=C(\C#N)c2nc3ccccc3[nH]2)oc2ccccc12 | inactive: -15.3% | 
O=[N+]([O-])c1ccccc1CNc1ccc(F)c(Cl)c1 |  | active: 15.8 µM
COc1ccc(CNc2nc3ccccc3n2C)c(O)c1 | inactive: 1.77% | 
O=C(COC(=O)CNC(=O)c1ccccc1F)Nc1ccc(Cl)cn1 | inactive: 19.9% | 

Compound | growth rescue (activation) | Potency
CCSC1=N/C(=C\C=C2/Oc3ccccc3N2CC)C(=O)S1 | inactive: -16.5% | 
O=C(CSc1cccc2cccc(Cl)c12)NCc1cccs1 | inactive: 0.528% | 
COc1ccccc1C(=O)NC(C)c1ccccc1 (stereo not given) | inactive: 8.94% | 
Cc1ccc(C(=O)N/C(=C/c2ccco2)C(=O)NC2CCS(=O)(=O)C2)cc1 (stereo not given) | inactive: 11.4% | 
COc1ccccc1CC(=O)NN1C(=O)c2ccccc2C1=O | inactive: 0.713% | 
CCOC(=O)CCCCC(=O)c1[nH]c(=O)[nH]c1CSc1nnc2c3ccccc3n(C(C)C)c2n1 | inactive: 22.7% | 
O=C(COC(=O)/C=C/c1ccc(Br)o1)NCCCN1CCCC1=O | inactive: 16.3% | 
O=C(COC(=O)C1CCCO1)Nc1nc(-c2ccc(F)cc2)cs1 (stereo not given) | inactive: 9.95% | 
Cc1cc(C)c(O)c(-c2cc(C(=O)NCCc3ccc(S(N)(=O)=O)cc3)[nH]n2)c1 | inactive: 31.8% | 
O=C(Nc1ccc(F)cc1)C1CCN(S(=O)(=O)c2cccc3nonc23)CC1 | inactive: 6.3% | 
COc1ccc2c(c1)c1nnc(SCC(=O)NC3CC3)nc1n2C | inactive: -4.18% | 
CC1CC(C)CN(C(=O)CSc2nnc(-c3ccco3)o2)C1 (stereo not given) | inactive: 18.9% | 
CCCNC(=O)C1(C)CCN1C(=O)c1ccc(C(C)(C)C)cc1 (stereo not given) | inactive: 7.63% | 
Cc1cc(/C=C2\NC(=S)N(C)C2=O)ccc1N1CCCC1 | inactive: 13% | 
COc1ccc(C(=O)NC(=S)N(CCC(C)C)c2c(N)n(Cc3ccccc3)c(=O)[nH]c2=O)cc1 | inactive: 14.2% | 
Cc1cccc(C(=O)NCc2ccc(S(N)(=O)=O)cc2)c1[N+](=O)[O-] | inactive: -6.29% | 
CN(CC(=O)Nc1ccc(N2CCOCC2)cc1)C(=O)C1CCCC1 | inactive: -3.43% | 
O=C1NCCN1CCNS(=O)(=O)c1ccc(F)cc1 | inactive: -6.52% | 
CCOC(=O)c1ccc(NC(=O)/C=C/c2cccs2)cc1 | inactive: 7.02% | 
CCNC(=O)C1(C)CCN(C(=O)c2ccc(OC(F)F)cc2)C1 (stereo not given) | inactive: -18.6% | 
O=C(Nc1scc(-c2ccccc2)c1C(=O)O)c1ccccc1Cl | inactive: -13% | 
Cc1cccc(OCCC(=O)NCC(=O)Nc2cccc(C)c2C)c1 | inactive: 17.5% | 
